In patent US12447159B2 (AELIS FARMA, priority 2018, dated 2025):

Legend:
[1] = molecular target: T1, human CB1 (hCB1) receptor (Homo sapiens, UniProt P21554); experiment: THC-induced increase in MAPK phosphorylation, HEK-293 cells stably transfected with hCB1 (western blot, P-MAPK/CoxIV); assay type: cell-based; conditions: THC 1 μM, 5 min; HEK-293 stably expressing the hCB1
T1 construct: expressed in transfected cells; host or cells: HEK-293
Method: The difference in the concentrations of THC used in the two experiments is related to the different efficiency of transfection of hCB1 cDNA plasmid, which is stable in Experiment 1 and transient in Experiment 2.
MAPK phosphorylation (P-Erk1/2MAPK proteins) was measured by western blot. In experiment 1 the mitochondrial marker CoxIV and in experiment 2 the un-phosphorylated MAPK proteins were used as loading controls. The P-MAPK/CoxIV and P-MAPK/MAPK ratios were calculated and the data expressed as % of vehicle-treated cells.

[2] = molecular target: T1, human CB1 (hCB1) receptor; experiment: THC-induced decrease in cellular respiration, HEK-293 cells transiently transfected with hCB1; assay type: cell-based; conditions: THC 1 μM; oxygen consumption rate; HEK-293 transiently hCB1
Method: After 15 min of incubation, THC (0, 1 μM, dissolved in EtOH 0.0034%) was added in the culture dishes for 30 minutes.
Cellular respiration was measured in a calibrated oxygraph equipped with a Clark electrode. Oxygen consumption (OC) rate was used to measure cellular respiration. […] 10 independent experiments were performed to obtain a n=10 per experimental condition.

[3] = test system: intravenous self-administration of WIN 55,212-2; experiment: Intravenous self-administration of the CB1 agonist WIN 55,212-2; assay type: in vivo; conditions: per os 3 h before session; WIN 12.5 μg/kg/infusion iv; mice
Method: Before the start of the self-administration sessions, mice were implanted under anesthesia with catheters into the right jugular vein. […] When the animal inserted its nose (nose poke) in the active hole, it received an iv infusion of WIN (12.5 μg/kg). Mice were trained under a fixed ratio 1 (FRI) schedule of reinforcement.
Two hour daily self-administration sessions were conducted 6 days per week for 19 days. Mice received corn oil vehicle (2 ml/kg) per os on day 9 and 10 to be habituated to the oral gavage procedure.

[4] = test system: intravenous self-administration of THC; experiment: Intravenous self-administration of THC in non-human primates; assay type: in vivo, Squirrel monkeys (Saimiri Sciureus); conditions: per os 4 h before testing; THC 4 μg/kg/injection iv, FR10; monkeys
Method: Four male Squirrel monkeys (Saimiri Sciureus) were used because they are the species in which THC self-administration can be the most reliably studied.
Monkeys were trained to lever-press to get an intravenous (iv) injection of THC (4 μg/kg/injection) under a ten-response fixed-ratio schedule of drug injection (FR10, each 10th response on the lever produced an injection of THC).
Number of lever presses and number of injections per session were recorded. Response rates are calculated based on available session time for responding (i.e., timeout time is subtracted). Statistics are performed for number of injections and response rates per session using either one-way or two-way repeated measures ANOVA with the THC dose or the time as factors.

[5] = test system: anxiety- and depression-related behaviors in mice; experiment: Repeated administration: anxiety- and depression-related behaviors (elevated plus maze, sucrose preference test); assay type: in vivo; conditions: 28 days once a day; 3pMBP 0.05, 5, 15 mg/kg per os; Rimo 10 mg/kg ip
Method: The EPM apparatus was made of four elevated arms arranged in a cross-like disposition, with two opposite arms being enclosed by walls and the two other arms being open. For all the experiments, after receiving the appropriate treatment mice were placed in the center of the EPM and let free to explore the maze for 5 minutes. The time spent and the number of entries into the open arms and closed arms were measured by an automatic videotracking system. A decrease in the percentages of visits and/or of the time spent in open arms is considered an index of increase in anxiety levels.
The sucrose preference test was performed in the home cage of the mice. Two identical bottles, one containing water and the other one containing a 2%-sucrose solution were placed in the hopper of each home cage. […] The volumes of water and of sucrose solutions drank by the mice were measured over two 1.30 h intervals, the first between 7.00 pm and 8.30 pm and the second between 8.30 pm and 10.00 pm. At each time point, the bottles were weighed and the intake volume was calculated by subtracting the initial bottle weight to the final bottle weight.
At day 26, mice were subjected to the EPM and at day 28 to the sucrose preference test.

CYP3A4 = experiment: CYP induction (mRNA level); assay type: in vitro ADME; conditions: 10 nM, 100 nM and 1 μM
CYP 1A = experiment: CYP inhibition in human liver microsomes; conditions: 10 μM
CYP 2C8 = CYP 2C8 (Homo sapiens, UniProt P10632); experiment: CYP inhibition in human liver microsomes; conditions: 10 μM
Chain of CYP 2C8 (P10632 whole entry): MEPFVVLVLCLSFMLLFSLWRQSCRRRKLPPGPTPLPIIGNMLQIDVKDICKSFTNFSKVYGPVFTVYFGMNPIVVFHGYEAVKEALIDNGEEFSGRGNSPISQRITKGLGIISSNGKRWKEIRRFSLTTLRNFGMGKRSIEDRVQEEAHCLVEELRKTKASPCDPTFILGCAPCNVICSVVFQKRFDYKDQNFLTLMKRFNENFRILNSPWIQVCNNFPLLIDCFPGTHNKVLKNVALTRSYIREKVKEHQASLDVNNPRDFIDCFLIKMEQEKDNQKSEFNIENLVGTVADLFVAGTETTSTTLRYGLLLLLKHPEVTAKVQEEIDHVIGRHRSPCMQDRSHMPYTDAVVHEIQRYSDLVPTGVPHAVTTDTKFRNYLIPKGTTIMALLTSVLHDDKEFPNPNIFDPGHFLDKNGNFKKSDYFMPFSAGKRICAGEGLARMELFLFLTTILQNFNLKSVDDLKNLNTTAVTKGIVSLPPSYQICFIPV

CYP 2D6 = CYP 2D6 (Homo sapiens, UniProt P10635); experiment: CYP inhibition in human liver microsomes; conditions: 10 μM
Chain of CYP 2D6 (P10635 whole entry): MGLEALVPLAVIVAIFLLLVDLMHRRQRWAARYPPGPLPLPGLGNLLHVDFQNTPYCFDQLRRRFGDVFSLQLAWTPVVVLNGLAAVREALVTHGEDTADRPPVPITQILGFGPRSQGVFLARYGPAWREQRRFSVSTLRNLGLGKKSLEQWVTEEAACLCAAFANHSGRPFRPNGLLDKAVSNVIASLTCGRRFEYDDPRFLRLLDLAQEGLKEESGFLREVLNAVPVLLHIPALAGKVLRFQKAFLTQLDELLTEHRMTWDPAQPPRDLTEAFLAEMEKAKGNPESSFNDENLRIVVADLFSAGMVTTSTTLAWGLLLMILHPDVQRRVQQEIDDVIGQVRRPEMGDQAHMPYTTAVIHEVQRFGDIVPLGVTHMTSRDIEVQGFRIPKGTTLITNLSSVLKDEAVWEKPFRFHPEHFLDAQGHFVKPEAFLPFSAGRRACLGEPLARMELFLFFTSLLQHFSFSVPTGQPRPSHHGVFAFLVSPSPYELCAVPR

CYP 3A = experiment: CYP inhibition in human liver microsomes; conditions: 10 μM
[6] = test system: THC-induced impairment of social interaction; experiment: THC-induced impairment of social interaction; conditions: per os 3 h before THC 3 mg/kg ip; mice
[7] = Pharmacokinetics in humans (healthy volunteers); conditions: single oral 0.2, 0.6, 2 mg/subject
OCT2 = OCT2 (Homo sapiens, UniProt O15244); experiment: Cellular transporter inhibition, CHO cells (fluorometry); conditions: 10 μM
Chain of OCT2 (O15244 whole entry): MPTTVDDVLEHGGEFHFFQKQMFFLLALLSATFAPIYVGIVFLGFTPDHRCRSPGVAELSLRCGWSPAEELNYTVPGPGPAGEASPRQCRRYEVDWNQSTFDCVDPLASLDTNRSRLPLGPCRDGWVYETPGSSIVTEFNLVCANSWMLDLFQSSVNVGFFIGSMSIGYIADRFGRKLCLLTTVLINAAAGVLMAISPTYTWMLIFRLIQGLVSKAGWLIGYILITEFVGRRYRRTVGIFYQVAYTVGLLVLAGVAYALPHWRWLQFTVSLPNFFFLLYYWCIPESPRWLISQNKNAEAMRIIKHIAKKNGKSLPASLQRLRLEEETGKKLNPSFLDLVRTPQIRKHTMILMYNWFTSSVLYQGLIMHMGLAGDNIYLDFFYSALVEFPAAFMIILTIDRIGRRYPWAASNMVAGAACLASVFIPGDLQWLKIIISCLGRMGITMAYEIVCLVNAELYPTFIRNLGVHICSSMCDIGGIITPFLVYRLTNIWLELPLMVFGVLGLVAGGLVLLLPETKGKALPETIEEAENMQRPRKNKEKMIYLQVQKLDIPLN

BCRP = BCRP (Homo sapiens, UniProt Q9UNQ0); experiment: as above; conditions: 10 μM
Chain of BCRP (Q9UNQ0 whole entry): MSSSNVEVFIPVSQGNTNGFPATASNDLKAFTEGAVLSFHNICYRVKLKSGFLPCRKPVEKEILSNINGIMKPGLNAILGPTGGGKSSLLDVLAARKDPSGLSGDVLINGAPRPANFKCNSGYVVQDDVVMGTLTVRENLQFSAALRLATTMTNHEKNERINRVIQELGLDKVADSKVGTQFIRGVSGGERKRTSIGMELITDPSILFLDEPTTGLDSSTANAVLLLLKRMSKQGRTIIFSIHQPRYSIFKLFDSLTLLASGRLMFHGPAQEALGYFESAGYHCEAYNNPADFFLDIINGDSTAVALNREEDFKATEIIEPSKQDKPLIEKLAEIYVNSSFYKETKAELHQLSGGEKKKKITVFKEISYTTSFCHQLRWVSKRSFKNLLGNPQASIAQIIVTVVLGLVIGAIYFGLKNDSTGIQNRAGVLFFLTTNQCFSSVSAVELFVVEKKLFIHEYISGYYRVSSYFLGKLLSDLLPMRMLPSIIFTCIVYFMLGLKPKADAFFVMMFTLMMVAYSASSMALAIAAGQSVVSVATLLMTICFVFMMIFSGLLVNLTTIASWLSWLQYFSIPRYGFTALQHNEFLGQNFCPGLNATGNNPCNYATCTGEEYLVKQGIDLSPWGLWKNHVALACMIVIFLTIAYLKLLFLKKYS

OATP1B3 = OATP1B3 (Homo sapiens, UniProt Q9NPD5); experiment: as above; conditions: 10 μM
Chain of OATP1B3 (Q9NPD5 whole entry): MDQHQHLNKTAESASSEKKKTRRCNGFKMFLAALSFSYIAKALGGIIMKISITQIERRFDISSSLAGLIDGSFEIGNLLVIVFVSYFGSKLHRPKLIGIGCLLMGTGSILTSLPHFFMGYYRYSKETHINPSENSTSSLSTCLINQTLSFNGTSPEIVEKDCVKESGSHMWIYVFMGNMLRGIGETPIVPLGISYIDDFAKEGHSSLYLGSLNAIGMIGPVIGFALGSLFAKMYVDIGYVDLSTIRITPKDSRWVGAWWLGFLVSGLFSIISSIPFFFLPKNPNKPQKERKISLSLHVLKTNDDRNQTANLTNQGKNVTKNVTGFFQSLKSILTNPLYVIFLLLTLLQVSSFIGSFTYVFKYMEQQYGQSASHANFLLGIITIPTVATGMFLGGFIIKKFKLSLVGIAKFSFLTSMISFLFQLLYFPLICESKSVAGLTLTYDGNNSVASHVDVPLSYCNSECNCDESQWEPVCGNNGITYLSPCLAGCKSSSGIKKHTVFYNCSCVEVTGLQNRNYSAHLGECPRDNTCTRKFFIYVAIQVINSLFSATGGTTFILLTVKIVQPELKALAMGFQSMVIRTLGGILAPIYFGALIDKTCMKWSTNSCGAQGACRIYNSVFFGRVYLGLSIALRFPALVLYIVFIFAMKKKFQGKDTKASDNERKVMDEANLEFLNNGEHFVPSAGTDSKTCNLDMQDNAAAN

[8] = test system: THC-induced psychomotor stimulation; experiment: THC-induced increase in psychomotor stimulation (open field locomotion); conditions: per os 3 h before THC 0.3 mg/kg; mice
healthy volunteers = experiment: Mood, cognition and suicidality in healthy volunteers (Bond & Lader VAS, ARCI 49, POMS 65, C-SSRS); conditions: single 0.2, 0.6, 2 mg/subject; repeated 0.6 mg/subject once a day for 7 days

T1 sequence (P21554 whole entry): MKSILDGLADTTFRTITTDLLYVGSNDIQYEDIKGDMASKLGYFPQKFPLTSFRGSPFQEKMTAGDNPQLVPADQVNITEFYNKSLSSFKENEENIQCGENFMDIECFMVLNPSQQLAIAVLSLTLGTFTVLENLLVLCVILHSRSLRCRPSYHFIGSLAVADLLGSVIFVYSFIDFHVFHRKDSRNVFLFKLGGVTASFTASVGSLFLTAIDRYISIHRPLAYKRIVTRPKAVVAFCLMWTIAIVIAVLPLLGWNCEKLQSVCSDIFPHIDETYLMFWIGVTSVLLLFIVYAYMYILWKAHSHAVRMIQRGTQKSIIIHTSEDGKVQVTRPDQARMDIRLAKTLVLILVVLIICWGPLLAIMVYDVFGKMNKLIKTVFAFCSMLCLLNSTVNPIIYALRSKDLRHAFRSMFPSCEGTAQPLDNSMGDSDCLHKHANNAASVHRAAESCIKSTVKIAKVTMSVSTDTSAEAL

With `COc1ccc(CO[C@H]2CC[C@@]3(C)C(=CC[C@H]4[C@@H]5CC[C@H](C(C)=O)[C@@]5(C)CC[C@@H]43)C2)cc1` [3pMBP, 3β-(4-methoxybenzyloxy)pregn-5-en-20-one] as the compound, how does the “% inhibition” value [1] read?
Its value is 60%.

What about the ID100 [1] of the same compound?
The ID100 was 10 nM.

What about the “% inhibition” value [2] of the same compound?
The value was 57%.

What about the ID100 [2] of the same compound?
Its ID100 is 100 nM.

What about the “% inhibition” value [3] of the same compound?
The value was 80%.

What about the ID50 [3] of the same compound?
The ID50 was 5 µg/kg.

What about the ID100 [3] of the same compound?
Its ID100 is 0.015 mg/kg.

And the ID50 [4]?
The ID50 was 5 µg/kg.

What about the ID100 [4] of the same compound?
The ID100 was 0.015 mg/kg.

And the “Percentage of time spent in the open arms of the elevated plus maze” value [5]?
The value was “has no effect on the time spent in open arms”.

And the “Percentage of visits in the open arms of the elevated plus maze” value [5]?
The value was “has no effect on the visits in open arms”.

What about the “Sucrose intake (sucrose preference test)” value [5] of the same compound?
Its value is “has no effect on sucrose intake”.

What about the “Expression of CYP3A4” value (CYP3A4) of the same compound?
Its value is “did not increase the expression”.

And the “Inhibition of CYP 1A activity” value (CYP 1A)?
Its value is “no significant inhibition”.

And the “Inhibition of CYP 2C8 activity” value (CYP 2C8)?
Its value is “no significant inhibition”.

And the “Inhibition of CYP 2D6 activity” value (CYP 2D6)?
Its value is “no significant inhibition”.

What about the “Inhibition of CYP 3A activity” value (CYP 3A) of the same compound?
Its value is “no significant inhibition”.

What about the “% inhibition” value [6] of the same compound?
Its value is 100%.

What about the ID50 [6] of the same compound?
Its ID50 is 5 µg/kg.

And the ID100 [6]?
The ID100 was 0.015 mg/kg.

And the “Absorption in humans (plasma concentration after oral administration)” value [7]?
Its value is “good absorption”.

What about the “Activity of OCT2” value (OCT2) of the same compound?
Its value is “did not modify the activity”.

And the “Activity of BCRP” value (BCRP)?
Its value is “did not modify the activity”.

What about the “Activity of OATP1B3” value (OATP1B3) of the same compound?
The value was “did not modify the activity”.

And the “% inhibition” value [8]?
The value was 100%.

And the ID50 [8]?
Its ID50 is 0.36 µg/kg.

What about the ID100 [8] of the same compound?
Its ID100 is 1.5 µg/kg.

And the “General behavior of the subject” value (healthy volunteers)?
Its value is “no modification in the general behavior”.

And the “Psychometric tests (Bond & Lader VAS, ARCI 49, POMS 65, C-SSRS)” value (healthy volunteers)?
The value was “no modification for any of the psychometric tests performed”.
